Assay results: patent US20030108991

Biological target: T1, N-Succinyl-Ala-Ala-Pro-Phe-p-nitroanilide
T1 chain: AAPF

B1: immobilized keratinase (keratinase-streptavidin fusion protein bound to biotinylated beads) (protein)
chain: AQTVPYGIPLIKADKVQAQGFKGANVKVAVLDTGIQASHPDLNVVGGASFVAGEAYNTDGNGHGTHVAGTVAALDNTTGVLGVAPSVSLYAVKVLNSSGSGSYSGIVSGIEWATTNGMDVINMSLGGASGSTAMKQAVDNAYARGVVVVAAAGNSGSSGNTNTIGYPAKYDSVIAVGAVDSNSNRASFSSVGAELEVMAPGAGVYSTYPTNTYATLNGTSMVSPHVAGAAALILSKHPNLSASQVRNRLSSTATYLGSSFYYGKGLINVEAAAQ[about 150 residues not shown]
  Km: 760 µM
